PubChem BioAssay AID463173 (ICCB-Longwood Screening Facility, Harvard Medical School, 2010)
The campaign covered roughly 52,000 compounds. About 4,300 (8.3%) were called active. Rule as the data show it: active = survival mostly below about 52% (no sharp cut-off); inactive = mostly above about 56%. The list shows a part of the results.

Tested on: DeltatarO mutant
Experiment: S. aureus survival, RN4220 and DeltatarO strains – OD600, teichoic acid synthesis inhibitors, primary screen (AID 463173)
Details: S. aureus RN4220 wild type/DeltatarO growth, OD600, 18 h, active compounds read low, screened at 18.75 µg/mL (by protocol)

SMILES	survival
COc1ccc(CCNc2nc3c(-c4cccc(C(F)(F)F)c4)nnn3c3ccccc23)cc1OC	inactive: 85%
Cc1ccc(CN2CCCn3nc(C(=O)NCc4ccc(N(C)C)cc4)cc3C2=O)cc1	inactive: 80%
COc1cc(Nc2ncc3c(n2)CCN(Cc2ccc(OC(C)C)c(OC)c2)C3)cc(OC)c1	inactive: 117%
Cc1ccc(C(=O)Nc2nnc(S(=O)(=O)N(C)Cc3ccc(Cl)cc3)s2)cc1	inactive: 99%
CCc1nn2c(=O)cc(COC(=O)c3ccc(NC(=O)COc4ccccc4C)cc3)nc2s1	inactive: 79%
COc1ccc(NC(=O)c2csnn2)cc1Cl	inactive: 86%
COc1ccccc1NC(=O)CSc1oc(-c2ccco2)nc1S(=O)(=O)c1ccc(C)cc1	inactive: 66%
CCOc1ccc(NC(=O)c2oc3ccccc3c2NC(=O)C(C)(C)C)cc1	active: 38%
O=C(CC1N=C2c3ccccc3N=C(SCC(=O)Nc3ccc(F)cc3)N2C1=O)NCc1ccco1 (stereo not drawn)	inactive: 75%
CCOc1ccc2nc(N3CCCC(C(=O)Nc4ccc(OC)cc4)C3)sc2c1 (stereo not drawn)	inactive: 60%
COc1cccc(CNC(=O)C2CCN(S(=O)(=O)c3c(C)noc3/C=C/c3cccs3)CC2)c1	inactive: 71%
O=C(NCCc1csc(-c2cccc(F)c2)n1)C(=O)Nc1cc(F)ccc1F	inactive: 84%
Cc1ccc(C)c(NC(=O)Cc2coc3cc(C)cc(C)c23)c1	inactive: 54%
O=C(c1cc2ccc3cccnc3c2[nH]1)N1CCCCC1	inactive: 69%
CCc1ccccc1NC(=O)Cn1nnc2sc3c(c2c1=O)CCC(C(C)(C)C)C3 (stereo not drawn)	active: 47%
COc1ccc(C)cc1NS(=O)(=O)c1cnc(N)nc1	inactive: 76%
O=C(c1noc2c1CCCCC2)N1CCN(c2cccc(Cl)c2)CC1	inactive: 69%
O=C(Cn1ncc2c3ccccc3n(Cc3ccccc3F)c2c1=O)N1CCCCCC1	inactive: 70%
CCN1CCN(c2nnc(-n3cccc3C(=O)NCc3ccccc3OC)s2)CC1	active: 46%
Cc1ccc(C(C(=O)NCc2ccccc2)N(C(=O)c2snc(C(N)=O)c2N)c2ccc3c(c2)OCCO3)o1 (stereo not drawn)	inactive: 62%

SMILES	survival
COc1ccc(NC(=O)C2CCN(C3=NS(=O)(=O)C(c4ccc(C)c(C)c4)=C3C)CC2)c(OC)c1	inactive: 91%
Cc1ccccc1OC(=O)c1cc(-c2ccc3c(c2)OCCO3)on1	active: -1%
Cc1nn(Cc2ccccc2)c(C)c1CC(=O)O	inactive: 92%
COC(=O)C1=NNC2C(=O)N(c3ccccc3C(F)(F)F)C(=O)C12 (stereo not drawn)	inactive: 77%
Cc1cc(C(=O)Nc2c(C)cccc2C)n(-c2ccccc2)n1	inactive: 95%
CC(C)CCN(C(=O)Nc1ccc(Cl)c(Cl)c1)C1CCN(C(C)C)CC1	inactive: 83%
O=C(OCc1cc(=O)n2nc(-c3cccs3)sc2n1)c1cccc(F)c1	inactive: 77%
COCCCNC(=O)c1ccc(Cn2c(SCc3ccc(F)cc3)nc3cccnc32)cc1	inactive: 49%
CCOC(=O)c1sc2ncn(CC(=O)Nc3cc(Cl)ccc3C)c(=O)c2c1C	inactive: 62%
CCOC(=O)Nc1ccc2c(c1)N(C(=O)CN1CCOCC1)c1ccccc1CC2	inactive: 69%
CCOC(=O)c1cc2c(=O)n3ccccc3nc2n(CC2CCCO2)c1=NC(=O)c1ccccc1Br (stereo not drawn)	active: 47%
CC(=O)Nc1cccc(NC(=O)CSc2nccn2Cc2ccc3c(c2)OCO3)c1	inactive: 84%
CC(=O)c1ccc(N2CCN(C(=O)c3cc(S(=O)(=O)N4CCCCCC4)cn3C)CC2)cc1	inactive: 101%
Cc1ccc2c(c1)cc(C(=O)NCc1ccccc1C)n2C	inactive: 81%
CCc1cnc2c(c1SCC(=O)Nc1ccc(C(=O)OC)cc1)c(=O)n(C)c(=O)n2C	inactive: 88%
CC(C)Oc1ccc(CNC(=O)C2CCN(Cc3cc4ccccc4n3Cc3ccccc3)CC2)cc1	inactive: 67%
O=C(COC(=O)c1cccc(NC(=O)c2ccc(Br)cc2)c1)c1ccc(Cl)cc1	inactive: 72%
CC(C)(C)c1ccc(OCCOCCn2c(-c3ccc(Cl)cc3)nc3ccccc3c2=O)cc1	inactive: 115%
O=C(O)c1ccc(C(=O)c2cc(C(=O)O)ccc2C(=O)O)cc1	inactive: 75%
CCn1c2ccccc2c2cc(NC(=O)COc3cc(C)ccc3C)ccc21	active: 29%

SMILES	survival
Cc1cccc(Cn2c(COc3ccccc3)nc3ccccc32)c1	active: -2%
CCCCCn1c(=O)[nH]c2cc(C(=O)NC(C)CC)ccc2c1=O (stereo not drawn)	inactive: 71%
COc1ccc(CCNC(=O)c2cc(=O)c3ccc(C)cc3o2)cc1OC	inactive: 62%
COCCn1c(=O)[nH]c2cc(C(=O)Nc3ccc(OC)cc3)ccc2c1=O	inactive: 138%
CCOc1ccc(CNC(=O)c2ccc3c(c2)nc2n3CCCCC2)cc1	inactive: 84%
CCOC(=O)CNC(=O)c1cc2c(=O)n3cccc(C)c3nc2n1C	inactive: 102%
CCc1nn2c(=O)c(S(=O)(=O)Nc3ccc(C)c(C)c3)c(C)nc2s1	inactive: 66%
O=C1OC2(CCCC2)OC(=O)C1=Cc1ccc(N2CCOCC2)o1	inactive: 66%
O=C(/C=C/c1ccccc1)Nc1nc2n(n1)C(c1ccc(F)cc1)C=C(c1ccccc1)N2 (stereo not drawn)	active: 44%
CC(C)Oc1ccc(CNC(=O)c2ccc(NC(=O)N3CC(C)Sc4ccccc43)cc2)cc1 (stereo not drawn)	inactive: 88%
C=CCNC(=O)Cc1c(O)c2ccccc2[nH]c1=O	inactive: 101%
Cc1cc(C)c(S(=O)(=O)NCC(c2ccco2)S(=O)(=O)c2cccs2)c(C)c1 (stereo not drawn)	active: 25%
Cc1cc(Br)cc2c1N(Cc1ccccc1OC(C)C)C(=O)C2=O	active: 22%
CCCCOc1ccc(CSCCN=C(N)N)cc1	active: 1%
Cc1cc2oc(C(=O)N(Cc3ccco3)Cc3ccccc3Cl)c(C)c2cc1C	active: 43%
OCCc1c[nH]c2ccc(OCc3ccccc3)cc12	inactive: 92%
CCOC(=O)c1ccccc1NC(=O)c1cnc(N2CCOCC2)c2ccccc12	inactive: 90%
Cc1ccc(SCC(=O)Nc2ccc3oc(-c4ccccc4F)nc3c2)cc1	active: 57%
